Test results published in the supplement of paper PMC10126150.
Sequences with one replicate were seen in a single cluster, so their values are uncertain.

System: ATP
Assay: switch fluorescence ratio, 500 uM ATP over buffer (Cy3 cluster intensity, sum of 5 cycles each) (fold (ratio)); higher = stronger signal-on switching upon ATP binding; sequences stand for … in TCGTCGGCAGCGTCAGATGTGTATAAGAGACAGTTTTTTTTTTTTTTTTTTTTTTTTT…TC
Settings: aptamer strand: ATP DNA aptamer (quencher-CACCTGGGGGAGTATTGCGGAGGAAGG + anchor), 100 nM annealed; ATP concentration: 500 uM; one replicate
Outline: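 Per cluster, summed Cy3 intensity from the target cycles was divided by that from the buffer cycles to give the fluorescence ratio, then averaged per switch-domain sequence. Clusters outside 100-1000 RFU were excluded. The Cy3-labelled switching-strand clusters, on a modified Illumina MiSeq flow-cell, were annealed to 100 nM quencher-labelled ATP aptamer and imaged in selection buffer, then after 15 min with 500 uM ATP at 22 °C, for five cycles with NaOH stripping and re-annealing between them.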
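Also: ATP exposure 15 min at 22 °C before imaging.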

Q: GGTACTGATG was tested. Which switch fluorescence ratio did it give?
A: 1.02

Q: Which switch fluorescence ratio does the source give for ATTCGGCACG here?
A: 1.02

Q: How did the switch fluorescence ratio turn out when TATCGGATCA was run?
A: 0.999

Q: How did the switch fluorescence ratio turn out when CAAGTCACCT was run?
A: 1.18

Q: Which switch fluorescence ratio does the source give for TAGCAGCTA here?
A: 1.02

Q: With CAAGGTCAAC as the sequence, how does the switch fluorescence ratio read?
A: 1.06

Q: How did the switch fluorescence ratio turn out when TTAATTTTGC was run?
A: 1.05

Q: ACAGTGACAT was tested. Which switch fluorescence ratio did it give?
A: 1.07

Q: How did the switch fluorescence ratio turn out when TCAATCGCGT was run?
A: 0.999

Q: GGCAGATGGT was tested. Which switch fluorescence ratio did it give?
A: 0.947

Q: With TGATAGCGGC as the sequence, how does the switch fluorescence ratio read?
A: 0.988

Q: For CAATGGGATG, which switch fluorescence ratio is on record?
A: 0.998

Q: Which switch fluorescence ratio does the source give for TTCAGTATGT here?
A: 1

Q: For CGCGAAACCG, which switch fluorescence ratio is on record?
A: 1.01

Q: How did the switch fluorescence ratio turn out when CTTCTTTATT was run?
A: 1.06

Q: For CAACAACGAG, which switch fluorescence ratio is on record?
A: 1.01

Q: For CTATATTAAT, which switch fluorescence ratio is on record?
A: 0.974

Q: Which switch fluorescence ratio does the source give for ATTGTCAATA here?
A: 0.996

Q: AATTCTCGTC was tested. Which switch fluorescence ratio did it give?
A: 1.01

Q: GCTGTTTATG was tested. Which switch fluorescence ratio did it give?
A: 0.985

Q: With CAAAAGAATC as the sequence, how does the switch fluorescence ratio read?
A: 0.986

Q: For TGGTGTCTGT, which switch fluorescence ratio is on record?
A: 0.987

Q: TATGTTTTC was tested. Which switch fluorescence ratio did it give?
A: 0.985

Q: Which switch fluorescence ratio does the source give for TGCGAGTCTG here?
A: 0.974

Q: How did the switch fluorescence ratio turn out when GACGTTGACC was run?
A: 1.12

Q: For AGGCTAGTTA, which switch fluorescence ratio is on record?
A: 0.947

Q: Which switch fluorescence ratio does the source give for CCGAGTTAGC here?
A: 1.33

Q: How did the switch fluorescence ratio turn out when GGGAGTTGTT was run?
A: 1.04

Q: Which switch fluorescence ratio does the source give for AAAACCAGG here?
A: 1.2

Q: With CATCTCTACA as the sequence, how does the switch fluorescence ratio read?
A: 1.03

Q: For ACTGTGCATA, which switch fluorescence ratio is on record?
A: 1.5

Q: GTGCTCACAA was tested. Which switch fluorescence ratio did it give?
A: 1.01

Q: For GCGTAGGCAA, which switch fluorescence ratio is on record?
A: 1.01

Q: Which switch fluorescence ratio does the source give for AGAATTTCA here?
A: 0.989

Q: Which switch fluorescence ratio does the source give for CCTAGGCTAA here?
A: 2.16

Q: TCGAATTCAT was tested. Which switch fluorescence ratio did it give?
A: 0.986

Q: How did the switch fluorescence ratio turn out when GATTCGGGG was run?
A: 1.01

Q: How did the switch fluorescence ratio turn out when CTATTCCGCC was run?
A: 2.18

Q: With CCCCGGGAGA as the sequence, how does the switch fluorescence ratio read?
A: 1.14

Q: AGTGTGCTTC was tested. Which switch fluorescence ratio did it give?
A: 0.967

Q: How did the switch fluorescence ratio turn out when CGAGCTATTC was run?
A: 3.54

Q: How did the switch fluorescence ratio turn out when ACTTTACCGA was run?
A: 1.32

Q: Which switch fluorescence ratio does the source give for TCTTGGGTA here?
A: 1.01

Q: With TTTTTTCTGC as the sequence, how does the switch fluorescence ratio read?
A: 1.02

Q: For AGGGATTGAG, which switch fluorescence ratio is on record?
A: 1.01

Q: AGGTTTGATG was tested. Which switch fluorescence ratio did it give?
A: 0.961

Q: With ATGTGCGCTG as the sequence, how does the switch fluorescence ratio read?
A: 0.997

Q: CCTGGATTAT was tested. Which switch fluorescence ratio did it give?
A: 1.04

Q: For CACGGTACCA, which switch fluorescence ratio is on record?
A: 1.33

Q: With CAGTATTTTC as the sequence, how does the switch fluorescence ratio read?
A: 1.02

Q: With CTATACCGGT as the sequence, how does the switch fluorescence ratio read?
A: 0.985

Q: TGAAGTGTGG was tested. Which switch fluorescence ratio did it give?
A: 1.04

Q: How did the switch fluorescence ratio turn out when TAAGGTGAAC was run?
A: 1.05

Q: With TGAACTTTAA as the sequence, how does the switch fluorescence ratio read?
A: 1.03

Q: How did the switch fluorescence ratio turn out when AGTTCAGTTG was run?
A: 1.04

Q: How did the switch fluorescence ratio turn out when GTGTCGCCAT was run?
A: 1.01

Q: How did the switch fluorescence ratio turn out when TACCCGTTTA was run?
A: 1.04

Q: GTGGGCGTAC was tested. Which switch fluorescence ratio did it give?
A: 1.62

Q: With ATCTCAGTG as the sequence, how does the switch fluorescence ratio read?
A: 1.03

Q: With CTTTCGTCAC as the sequence, how does the switch fluorescence ratio read?
A: 1.26

Q: How did the switch fluorescence ratio turn out when GGGAGGTTTA was run?
A: 1.02

Q: For TGTAGACATT, which switch fluorescence ratio is on record?
A: 1.02

Q: GTCGAGGTTT was tested. Which switch fluorescence ratio did it give?
A: 1

Q: With GATGCTAGCC as the sequence, how does the switch fluorescence ratio read?
A: 1.08

Q: Which switch fluorescence ratio does the source give for CAGGACAGCG here?
A: 1.01

Q: How did the switch fluorescence ratio turn out when GCGGCGCGAC was run?
A: 1.07

Q: Which switch fluorescence ratio does the source give for GCAAACCATG here?
A: 1.05

Q: With TAAATCGAGT as the sequence, how does the switch fluorescence ratio read?
A: 1.06

Q: How did the switch fluorescence ratio turn out when CCAGGTGAGT was run?
A: 4.92

Q: Which switch fluorescence ratio does the source give for TGTTGTCTAC here?
A: 1.02

Q: GAGATATAAA was tested. Which switch fluorescence ratio did it give?
A: 0.981

Q: CCCAGTGCGA was tested. Which switch fluorescence ratio did it give?
A: 1.93

Q: ATTGACGTCC was tested. Which switch fluorescence ratio did it give?
A: 0.98

Q: AGGGAGCA was tested. Which switch fluorescence ratio did it give?
A: 1.02

Q: GCCTAGAAG was tested. Which switch fluorescence ratio did it give?
A: 0.966

Q: For TTAGGCGCTG, which switch fluorescence ratio is on record?
A: 0.969

Q: Which switch fluorescence ratio does the source give for GTCTAGTTAT here?
A: 0.962

Q: Which switch fluorescence ratio does the source give for GTCGAGACGG here?
A: 1.03

Q: TGATTTAGTC was tested. Which switch fluorescence ratio did it give?
A: 1.01

Q: For GTATTGGCTC, which switch fluorescence ratio is on record?
A: 1.01

Q: ACACTTTTTG was tested. Which switch fluorescence ratio did it give?
A: 0.988

Q: Which switch fluorescence ratio does the source give for CGACAAGGAG here?
A: 1.02

Q: With ATTGTTCTTC as the sequence, how does the switch fluorescence ratio read?
A: 0.951

Q: TTCGATTACT was tested. Which switch fluorescence ratio did it give?
A: 1.54

Q: AATGATTACT was tested. Which switch fluorescence ratio did it give?
A: 1.01
